Data: PubChem BioAssay AID1240 (Sanford-Burnham Center for Chemical Genomics, 2008)
The campaign covered roughly 50,000 compounds. About 800 (1.6%) showed an effect of 50% or more. The list shows a part of the results.

The compounds below were run against Bcl-2-like protein 10 (Homo sapiens) (UniProt Q9HD36) (assay: TR3 peptide-Bcl-B binding displacers, biochemical primary FP assay, phenotype converters (AID 1240;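 also: 0% = Bcl-B with tracer peptide and DMSO and 100% = tracer peptide lacking Bcl-B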)). Conditions: GST-Bcl-B / FITC-TR3 peptide fluorescence polarization; stronger effect = higher value; compound at 3.75 mg/L.
Chain of UniProt Q9HD36 (Q9HD36 whole entry, looked up): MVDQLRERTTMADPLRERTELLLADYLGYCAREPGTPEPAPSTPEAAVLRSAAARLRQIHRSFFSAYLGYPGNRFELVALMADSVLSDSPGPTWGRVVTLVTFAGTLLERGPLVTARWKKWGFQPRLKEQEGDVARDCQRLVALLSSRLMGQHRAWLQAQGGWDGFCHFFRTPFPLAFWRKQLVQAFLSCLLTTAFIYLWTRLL
`O=[N+]([O-])c1cccc(S(=O)(=O)NCc2ccncc2)c1` gave a displacement of -3.8%. `Cc1ccc(C(=O)Nc2sc3c(c2C(=O)N2CCCCCC2)CCC(C)C3)cc1` (stereo not given) gave a displacement of 23.4%. `CCOC(=O)C1=C(C)N=c2s/c(=C\c3cc(Br)ccc3OC(C)=O)c(=O)n2C1c1ccccc1` (stereo not given) showed a displacement of 3%. `Cc1cccc(OCCOc2ccc(/C=C3/SC(=S)N(C)C3=O)cc2)c1` gave a displacement of 6.2%. With `Cc1ccc(/C=C2\C(=O)NC(=O)N(Cc3ccccc3)C2=O)cc1` the displacement was -3%. `O=c1[nH]c(=O)n(-c2cccc(Cl)c2)c(O)c1C=NCc1ccc(F)cc1` was tested, and the displacement was 35.2%. Compound `O=C(CCN1CCCCC1)N/N=C/c1ccc(Br)cc1` has a displacement of -9.6%. For `O=C(O)CCCCCN1C(=O)C(=O)/C(=C(/O)c2ccccc2)C1c1cccc(F)c1` (stereo not given), the displacement was -11.9%. `CC(=O)Oc1ccc2c3c(c(=O)oc2c1C)CCCC3` showed a displacement of -6.4%. With `C=CCOc1ccc2oc(=O)cc(C)c2c1` the displacement was 8.5%. Work on `CN(C)c1ccc(NC(=O)C(=O)NCCC2=CCCCC2)cc1` yielded a displacement of -9.7%. Compound `COc1ccc(NC2=CC(c3ccccc3F)N(c3ccc(OC)cc3)C2=O)cc1` (stereo not given) has a displacement of 1.9%. `N#C/C(=C/c1ccsc1)C(=O)Nc1cccc(Br)c1` was tested, and the displacement was -6.2%. For `Cc1ccc(C(C)C)c(OCC(=O)Nc2ccc(O)c(-c3nc4ccccc4o3)c2)c1`, the displacement was 1.8%. Work on `COc1ccccc1NC(=O)C(=O)NCCc1ccc(OC)c(OC)c1` yielded a displacement of 11.1%. Compound `COc1cccc2cc(C(=O)Nc3cccc(C(C)=O)c3)c(=O)oc12` has a displacement of 5.7%. `N#Cc1c(-c2ccccc2)cc(-c2ccccc2Cl)c(C#N)c1N` gave a displacement of -14.1%. In the case of `CCOc1cc(/C=N\NC(=O)CNc2ccccc2C)cc(I)c1O`, the displacement is reported as 6.9%. For `O=C(NCc1ccccn1)c1c(O)c2ccccc2[nH]c1=O`, the displacement was 3.2%. `CN(C)c1cc(N/N=C/C=C/c2ccccc2)nc(N(C)C)n1` gave a displacement of 2.5%. `CCOc1c(Br)cc(/C=C2N=C(/C=C/c3ccccc3)OC/2=O)cc1OC` was tested, and the displacement was 105%. With `O=C(c1ccccc1F)N1CCN(c2cc(N3CCCC3)c(F)cc2[N+](=O)[O-])CC1` the displacement was -3.5%. `CCOc1ccc(NC(=S)NC(NC(=O)c2cc(OC)c(OC)c(OC)c2)C(Cl)(Cl)Cl)cc1` (stereo not given) gave a displacement of 13.2%. Work on `O=C(O)C(NS(=O)(=O)c1ccc(Br)cc1)C(O)c1ccccc1` (stereo not given) yielded a displacement of 6.5%. `CCOc1ccc(N(CC(=O)O)S(=O)(=O)c2ccc(SC)cc2)cc1` showed a displacement of 11.8%. With `O=C(Nc1ccc(Cl)c(F)c1)c1cnn2c1NC(c1ccc(Br)cc1)CC2C(F)(F)F` (stereo not given) the displacement was 9.5%. In the case of `Cc1c(N2C(=O)/C(=C/c3ccc(F)cc3)SC2=S)c(=O)n(-c2ccccc2)n1C`, the displacement is reported as 10.8%. Compound `CCCCOc1c([N+](=O)[O-])cc([N+](=O)[O-])c2nsnc12` has a displacement of -3.8%. `COC(=O)c1cc(Br)c(C)c(NC(C)=O)c1[N+](=O)[O-]` gave a displacement of 13.8%. `Oc1ccc2ccccc2c1/C=N/N1CCN(Cc2cccc3ccccc23)CC1` was tested, and the displacement was 0.4%. With `CCN(CC)/C(N)=N/c1nc(C)cc(C)n1` the displacement was 6.3%. `Cc1ccc(/C=C2/SC(=S)N(CC(=O)Nc3ncc(Cc4ccc(C)cc4)s3)C2=O)cc1` gave a displacement of 19.4%. Work on `O=C(COc1cccc2ccccc12)NCCCN1CCOCC1` yielded a displacement of -17.9%. `COc1ccc(-c2cc(C(=O)Nc3c(C)cc(C)cc3C)c3ccccc3n2)cc1OC` showed a displacement of 2.8%. Work on `Cc1ccc(C(C)C)c(OCC(=O)NNC(=O)/C=C/c2ccc3c(c2)OCO3)c1` yielded a displacement of -1.6%. `O=C(Nc1ccc(OC(F)(F)F)cc1)c1ccc(Cl)cc1Cl` gave a displacement of 0.8%. Compound `O=[N+]([O-])c1cccc(-c2nc(C3COc4ccccc4O3)cs2)c1` (stereo not given) has a displacement of 5.6%. For `O=S(=O)(c1ccc(Br)c2ccccc12)N1CCN(Cc2ccccc2)CC1`, the displacement was -9.8%. For `Cc1ccc(N(CC(=O)NCc2ccc(Cl)cc2)S(C)(=O)=O)cc1`, the displacement was -2.3%. In the case of `O=[N+]([O-])c1ccc(Sc2nnnn2-c2ccccc2)nc1`, the displacement is reported as -10%. `COc1ccc(CCNC(=O)C2C3CCC(O3)C2C(=O)O)cc1OC` (stereo not given) gave a displacement of -1.3%. For `N#CC(C#N)=C1CCCc2ccccc2N1`, the displacement was 6.6%. In the case of `O=c1oc2c(O)c(O)ccc2c2c1CCC2`, the displacement is reported as 26.2%. `CCCOc1ccc(C(=O)Nc2ccc(C)cc2[N+](=O)[O-])cc1` showed a displacement of -5.3%. `CCN1CCN(CC(O)CN2CCn3c4c(c5cc(C)ccc53)CCCC42)CC1` (stereo not given) was tested, and the displacement was 24.7%. With `Cc1ccc2nc(-c3ccc(NC(=O)C4CCC(=O)N4)cc3)sc2c1` (stereo not given) the displacement was -32.2%. For `Cc1ccc(C(=O)/C=C/c2ccc3c(c2)OCO3)cc1`, the displacement was 8.8%. With `C=C(C)C(C)(C#CCN1CCCCC1)OCCC#N` (stereo not given) the displacement was -8%. `Nc1cc(S(=O)(=O)O)cc2cccc(S(=O)(=O)O)c12` gave a displacement of 7.8%. `Cc1no[n+]([O-])c1COc1ccccc1C=O` was tested, and the displacement was 16.7%. In the case of `O=C(NNC(=O)c1cccnc1)c1ccc(Br)cc1`, the displacement is reported as 3.9%. Work on `Cc1ccccc1OC1=NS(=O)(=O)c2ccccc21` yielded a displacement of -5.9%. `Cn1c(=O)c2c(nc(Sc3nc4ccccc4n3Cc3ccccc3)n2C)n(C)c1=O` was tested, and the displacement was 8.7%. In the case of `N#CC1=C(SCc2ccccc2)NC(=O)C(C#N)C12CCCCC2` (stereo not given), the displacement is reported as 3.4%. With `CC(C)=C(NC(=O)c1ccccc1)C(=O)N1CCOCC1` the displacement was 3%. `CCCOC(=O)C1=C(C)NC2=C(C(=O)CC(c3ccc(OC)cc3)C2)C1c1ccc([N+](=O)[O-])cc1` (stereo not given) was tested, and the displacement was -11.8%. Compound `CC(Oc1ccccc1)C(=O)Nc1cc([N+](=O)[O-])ccc1Cl` (stereo not given) has a displacement of -1.9%. Work on `Nc1nnc(-c2ccccc2-c2nnc(N)s2)s1` yielded a displacement of 5.7%. For `COC(=O)CN(c1ccc(OC)cc1OC)S(=O)(=O)c1ccccc1`, the displacement was -1.6%. With `COc1cc(C(=O)N2CCN(Cc3cccc(C(F)(F)F)c3)CC2)cc(OC)c1OC` the displacement was 3.1%. In the case of `Cc1ccc(OCc2nnc(NC(=O)Nc3ccccc3)s2)c(C)c1`, the displacement is reported as 2.3%. Work on `COc1ccc(/C(N)=N/OC(=O)c2cccc([N+](=O)[O-])c2C)cc1` yielded a displacement of -2.9%. `CCOC(=O)c1c(NC(=O)/C=C/c2ccccc2)sc(C(=O)N(CC)CC)c1C` showed a displacement of -1.5%. `C/C(=N\NC(=O)COc1cccc(C)c1)c1ccc(Br)cc1` showed a displacement of 6.7%. For `C=CCN1CN=C(NS(=O)(=O)c2ccc(C)cc2)NC1`, the displacement was -1.3%. `CC(C)Oc1ccc(/C=N/NC(=O)C(=O)NC2CCCCC2)cc1` showed a displacement of 11.9%. `Cc1c(Cl)cccc1-c1ccc(C(=O)Nc2cccc(Cl)c2Cl)o1` showed a displacement of 2.2%. In the case of `O=C(COc1ccc2c(c1)oc(=O)c1ccccc12)c1ccc(F)cc1`, the displacement is reported as 8.1%. `Cc1c(NC(=O)/C=C/c2ccccc2)c(=O)n(-c2ccccc2)n1C` showed a displacement of 2.7%. Compound `O=C(O)COc1ccc2c3c(c(=O)oc2c1)CCCC3` has a displacement of -5.4%. `O=C(CN1C(=O)S/C(=C/c2ccccc2F)C1=O)Nc1ccccc1` showed a displacement of 10.1%. For `O=C(NCc1ccccc1Cl)c1cccc(Br)c1`, the displacement was 2.8%. In the case of `COC(=O)c1ccccc1NC(=O)CSc1nc2c(c(=O)n(C)c(=O)n2C)n1C`, the displacement is reported as 10.4%. `Cc1ccc(C(C)C)c(OCC(=O)Nc2ccc(F)c([N+](=O)[O-])c2)c1` gave a displacement of 1.2%. For `C=CCOC(=O)C1=C(C)NC(C)=C(C(=O)OCC=C)C1c1cccc([N+](=O)[O-])c1`, the displacement was 14.2%. With `CCCC(=O)Nc1ccc(NC(=O)c2cccc(Cl)c2)cc1` the displacement was 8.5%. Work on `c1ccc(Cn2ncc3c(N4CCOCC4)ncnc32)cc1` yielded a displacement of 3.2%. In the case of `CCN1C(=O)/C(=C/c2ccc(C)o2)C(=O)NC1=S`, the displacement is reported as 8.8%. In the case of `O=C(/C=C/c1ccccc1Cl)Nc1ccc([N+](=O)[O-])cc1`, the displacement is reported as -0.8%. `O=[N+]([O-])c1cccc(S(=O)(=O)Nc2ccccc2-c2ccccc2)c1` showed a displacement of -2.6%. For `Cc1ccc(N(CC(=O)Nc2ccc3ccccc3c2)S(=O)(=O)c2ccc(F)cc2)cc1`, the displacement was 8.3%. In the case of `O=C(Nc1ccc(Br)cc1)c1ccccc1O`, the displacement is reported as 3.7%. In the case of `COC(=O)C1C(=O)CC(C)(O)C(C(=O)OC)C1/C=C/c1ccccc1` (stereo not given), the displacement is reported as -7.4%. Work on `Cc1oc(-c2nc3ccccc3n2C)cc1C(=O)c1ccccc1` yielded a displacement of 14.1%. `CCCCOc1cccc(C(=O)Nc2ccc(I)cc2Cl)c1` gave a displacement of -0.6%. Compound `CCCCOC(=O)Nc1nnc(-c2ccco2)s1` has a displacement of -0.3%. With `COC(=O)CNC(=O)c1cccc([N+](=O)[O-])c1` the displacement was -3.3%. For `CCOC(=O)c1c(C)oc2ccc(OC(=O)c3ccccc3OC)cc12`, the displacement was 8.9%. Compound `COc1cc(/C=C2\C(=O)NC(=S)N(c3ccc(C(C)C)cc3)C2=O)ccc1O` has a displacement of 3.1%. Work on `CCOC(=O)C1=C(C)NC(=O)/C1=C\c1cccs1` yielded a displacement of 108%. `N=C1S/C(=C\c2ccc(-c3ccc([N+](=O)[O-])cc3)o2)C(=O)N1c1ccc2c(c1)OCO2` gave a displacement of -9.3%. `Cc1cccc(-c2nc3ccccc3[nH]2)c1` showed a displacement of 10.9%. `FC(F)(F)COc1nc(N2CCOCC2)nc(N2CCN(Cc3ccccc3)CC2)n1` was tested, and the displacement was 14.3%. `Cc1cc(C)n(Cc2cc(C)c(Cn3nc(C)cc3C)cc2C)n1` gave a displacement of 3.2%. With `CCCN(CCC)C(=O)c1cnn(-c2ccccc2)c1NC(=O)c1cccc(F)c1` the displacement was 2.4%. `CCOc1cc(/C=N/n2cnnc2)ccc1OCc1ccc(F)cc1` gave a displacement of -1.9%. `COc1cc(/C=N\N2CCN(c3ccccc3OC)CC2)ccc1OCc1ccccc1` showed a displacement of -3.9%. In the case of `O=C1CC(c2ccccc2)CC2=C1C(c1cccs1)Nc1ccc(C(=O)c3ccccc3)cc1N2` (stereo not given), the displacement is reported as 29.2%. `CCOC(=O)N1N=C(CC)CC1(O)c1ccncc1` (stereo not given) was tested, and the displacement was -0.2%. Work on `Cc1ccc(C(=O)Nc2ccc(C(N)=O)cc2)cc1C` yielded a displacement of -2.8%. With `COc1ccc(CCNC(=O)COc2ccc3ccccc3c2)cc1OC` the displacement was -21.6%. `CC(=O)Nc1ccc(-c2ccc(OCc3ccccc3)cc2)cc1` was tested, and the displacement was -12%. In the case of `O=C1NC(=Nc2ccc(O)cc2)S/C1=C/C=C/c1ccccc1`, the displacement is reported as -5.6%. Work on `COc1ccc(Br)cc1C(=O)Nc1ccc2nn(-c3ccc(F)cc3)nc2c1` yielded a displacement of 5.4%. Work on `Cc1ccc(COc2ccc(/C=N/NC(=O)CN3CCCCC3)cc2)cc1` yielded a displacement of 6.5%. `O=C(O)c1cccc(N2Cc3ccc(Br)cc3C2)c1` showed a displacement of 4.4%. In the case of `Cc1oc2ccc(OCc3ccccc3Cl)cc2c1C(=O)O`, the displacement is reported as 5.8%. In the case of `Cc1ccc(-c2cc(C(F)(F)F)n3ncc(C(=O)Nc4cccnc4)c3n2)cc1`, the displacement is reported as 0.9%. `O=C(COc1ccc(Br)cc1)Nc1ccc(Cl)c(Cl)c1` was tested, and the displacement was 7.3%. `CC(=O)/C(=C1\NC(C)(C)Cc2ccccc21)c1ccccc1` gave a displacement of -10.4%.
